Data on 48 molecules can be found in PubChem BioAssay AID1508624 (National Center for Advancing Translational Sciences (NCATS), 2021).

About 120 (0.25%) of roughly 48,000 compounds were called active. Another 4% or so got no clear call; they are omitted. The call rests on the fitted dose curve; in most records, active means well fitted activation curve with a large enough effect; inconclusive means small, poorly fitted or top-dose-only effect, or another doubt; inactive means no such curve, though single readings can be large or run the other way. Some of the results follow.

The nature of this test: Primary qHTS for Identification of Small Molecule Activators of Huntingtin-Antisense Promoter Activity. Further: nearly all actives have a fitted effect of over 55% in size. To be noted: HEK293 HTT-AS promoter firefly luciferase reporter, 24 h; series mostly up to 57.5 µM; activity change, positive = activation: at the top concentration. In outline:
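Firefly luciferase readout (Dual-Glo, 10 min RT) after 24 h, 37 °C compound exposure (final up to 57.5 uM) of HEK293 reporter cells cultured 24 h beforehand; PTC124 at 50 uM final as control inhibitor; activity scaled vehicle 0%, zero RLU -100%.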
(In general: In qHTS, concentration-response curves come from the screen itself.)
Regarding `Cc1ccc2c(c1)C(c1ccccc1)N(C(=O)c1ccccc1F)CC(=O)N2` (stereo not drawn), the “activity change, positive = activation” value was inactive: -19.9%. To `CCOC(=O)c1cccc(NC(=O)c2cc3cc4ccc(C)cc4nc3o2)c1` belongs inactive: -2.78%; to `CCCn1c(SCc2nc(-c3cc(OC)ccc3OC)no2)nnc1-c1ccc(Cl)cc1`, inactive: -19.1%. To `Cc1ccc(NC(=O)CCNS(=O)(=O)c2ccc(Br)s2)cc1` belongs inactive: -11.4%; to `O=C(NCCS(=O)(=O)N1CCN(c2ccccc2F)CC1)C(c1ccccc1)c1ccccc1`, inactive: 12.3%; to `CNCCCC1c2ccccc2C=Cc2ccccc21`, inactive: -16.7%. With `O=C(Nc1ccccc1Cl)c1cc(S(=O)(=O)N2CCC3(CC2)OCCO3)ccc1F`, the “activity change, positive = activation” value is inactive: -24.4%.

As for `Cc1ccc(-c2nc(NC(=O)CSc3ncnc4sc5c(c34)CCC(C)C5)ns2)cc1` (stereo not drawn), the “activity change, positive = activation” value is inactive: -1.63%. `CCOc1ccc(N(CC)S(=O)(=O)N2CCCC(C(=O)Nc3ccc(OC)c(OC)c3)C2)cc1` (stereo not drawn): the “activity change, positive = activation” value was inactive: -31.1%. Then `CCn1cc2nc(SCc3ccccc3Cl)n(CCc3ccccc3)c(=O)c2n1`, with inactive: -22.8%; and `CCOc1ccc(-n2ccn3c(CC(C)CC(=O)O)nnc3c2=O)cc1` (stereo not drawn), with inactive: -6.69%. To `COc1ccc2c(c1)c1c(c(=O)n(-c3ccc(C)cc3)c(=O)n1CC(=O)N1CCCC1)n2C` belongs inactive: -11.5%. Take `CCC12CN3CC(C)(CN(C1)C3c1ccccc1C)C2=O` (stereo not drawn): the “activity change, positive = activation” value was inactive: 12.1%.

As to `CCOC(=O)C1=C[C@@H](OC(CC)CC)[C@H](NC(C)=O)[C@@H](N)C1`, the “activity change, positive = activation” value was inactive: -12.9%. Then `Cc1ccccc1-c1nc2cc(NC(=O)c3cccc(OCCC(C)C)c3)ccc2o1`, with inactive: 0.674%; and `CCOC(=O)N1CCC(NC(=O)c2ccc3c(c2)N(Cc2ccccc2)C(=O)c2ccccc2S3=O)CC1` (stereo not drawn), with inactive: -11%; and `CCCCN(Cc1ccccc1)S(=O)(=O)c1cc(Br)cc2c1N(C(=O)C1CC1)CC2`, with inactive: -32.4%.

Regarding `COc1cc(NC(=O)c2ccc(-c3nc(COc4ccccc4)c(C)o3)cc2)cc(OC)c1`, the “activity change, positive = activation” value is inactive: -47.8%. To `O=C(CSc1nnc(CNC(=O)c2ccccc2F)n1-c1ccccc1)Nc1ccccc1F` belongs inactive: -15%; to `CCCNC(=O)CCn1nc(-c2ccccc2)c2ccccc2c1=O`, inactive: 6.11% [at 11.5 µM, percent change from vehicle, -100% = no light]. As for `O=C(CCc1nnc2n(Cc3ccccc3Cl)c(=O)c3ccccc3n12)Nc1ccc(F)cc1`, the “activity change, positive = activation” value was inactive: -6.89%. To `CC(=O)C1=C(c2ccc(Cl)c(Cl)c2)N(C(C)=O)n2c(nnc2C2CCCCC2)S1` belongs inactive: 5.21%; to `CCC(Cn1nnc2ccccc2c1=O)NC(=O)Nc1ccc(C)cc1` (stereo not drawn), inactive: -3.98%. Then `CCOc1ccc(OCC)c(NC(=O)c2cc(CN3CCOCC3)on2)c1`, with inactive: -5.35%.

Regarding `COc1cccc(CNC(=O)C(NS(=O)(=O)c2cccs2)C(C)C)c1` (stereo not drawn), the “activity change, positive = activation” value is inactive: -7.34%.

As for `COc1cccc(CNC(=O)c2ccc3nc(N4CCCCC4)sc3c2)c1OC`, the “activity change, positive = activation” value was inactive: -4.53%.

Turning to `Cc1ccc(CN2CCSc3ccc(C(=O)N4CCN(c5ccc(Cl)cc5)CC4)cc32)cc1`, the “activity change, positive = activation” value is inactive: -35.5%. Then `COc1ccccc1NC(=O)c1cc(S(=O)(=O)NCCc2ccccc2)ccc1F`, with inactive: -5.83%; and `O=c1c2cccnc2n(Cc2ccccc2F)c(=O)n1Cc1ccc(F)cc1`, with inactive: -19.8%. With `CCCCN1C(=O)c2[nH]nc(-c3ccccc3O)c2C1c1cc(Br)c(O)c(OC)c1` (stereo not drawn), the “activity change, positive = activation” value is inactive: -39.4%. Then `C[C@]12CCC(=O)C=C1CC[C@@H]1[C@@H]2[C@@H](O)C[C@@]2(C)[C@H]1CC[C@]2(O)C(=O)CO`, with inactive: -6.48%; and `COc1ccc(NC(=O)Cn2c3ncccc3c(=O)n2-c2ccc(C)c(C)c2)c(OC)c1`, with inactive: -9.52%; and `O=S(=O)(Nc1ccc2nc(-c3ccc(F)cc3)oc2c1)c1ccccc1`, with inactive: 4.62%. `CCOCCCNC(=O)C(c1ccc(OC)cc1)N(Cc1ccc2c(c1)OCO2)C(=O)c1ccc(NC(C)=O)cc1` (stereo not drawn): the “activity change, positive = activation” value was inactive: -2.49%. For `CCCCc1nn2c(=O)cc(COC(=O)c3ccc(NC(=O)c4ccccc4Cl)cc3)nc2s1`, the “activity change, positive = activation” value was inactive: 11.9%. Consider `COc1ccc(-n2cc(C(=O)OCc3ccc(F)c(F)c3)c3ccccc3c2=O)cc1`, for which the “activity change, positive = activation” value was inactive: -18.6%. To `CCc1ccc(NS(=O)(=O)c2ccc3[nH]cc(C(=O)NCCc4cccc(C)c4)c(=O)c3c2)cc1` belongs inactive: -11.5%. For the molecule `O=C(NC1(C(F)(F)F)C(=O)Nc2c1c(=O)[nH]c(=O)n2-c1ccc(F)cc1)c1ccccc1` (stereo not drawn), the “activity change, positive = activation” value is inactive: 10.6%.

Regarding `COc1ccc(C2C(=O)N(C3CCCCC3)CC(=O)N2CCC2=CCCCC2)cc1` (stereo not drawn), the “activity change, positive = activation” value is inactive: -29.6%. To `CCOc1ccc(-n2c(=O)c3sc4ccccc4c3n(Cc3cccc(C)c3)c2=O)cc1` belongs inactive: 1.72%; to `Cc1cccc(N2CCN(C(=O)CCc3c(C)nc4c(c3C)c(=O)n(C)c(=O)n4C)CC2)c1C`, inactive: -16.2%. Then `Cc1ccc(OC(=O)c2cc(-c3ccc(Cl)cc3)on2)c(C)c1`, with inactive: -6.42%; and `CC1CCC(NC(=O)c2ccc3c(c2)N(Cc2ccccc2F)C(=O)c2ccccc2S3=O)CC1` (stereo not drawn), with inactive: 17.6%; and `CCOc1ccc(CCNC(=O)Cn2ncn3c(cc4sc(C)cc43)c2=O)cc1OCC`, with inactive: -2.74%. To `O=C(NCc1ccccc1)C(=O)NCC(c1ccc2c(c1)OCO2)N1CCOCC1` (stereo not drawn) belongs inactive: -12.4%; to `COc1ccc2c(c1)sc1ncc(C(=O)NCc3ccc(Cl)cc3)c(=O)n12`, inactive: -1.27%.

For the molecule `Cc1ccc2c(c1)C(=O)OC(C(=O)Nc1ncc(Cc3ccccc3Cl)s1)C2` (stereo not drawn), the “activity change, positive = activation” value was inactive: -6.83%. Then `Cc1ccc(-c2cc(-c3ccc4c(c3)NC(=O)CO4)nc3c2COc2ccccc2-3)cc1`, with inactive: -7.63%.
